The whole screen tested about 220,000 compounds, of which about 16,000 (7.3%) were called active. Inconclusive results, whose numbers are uncertain, are shown with a selection of clear calls. The call rests on the fitted dose curve; in most records, active means well fitted inhibition curve with a large enough effect (not every such curve was filed as active); inconclusive means small, poorly fitted or top-dose-only effect, or another doubt; inactive means no such curve, though single readings can be large or run the other way. Potencies of inconclusive entries are left out as doubtful fits.
Molecular target: Aldehyde dehydrogenase 1A1 (Homo sapiens) (UniProt P00352)
UniProt P00352, sequence (P00352 whole entry, looked up): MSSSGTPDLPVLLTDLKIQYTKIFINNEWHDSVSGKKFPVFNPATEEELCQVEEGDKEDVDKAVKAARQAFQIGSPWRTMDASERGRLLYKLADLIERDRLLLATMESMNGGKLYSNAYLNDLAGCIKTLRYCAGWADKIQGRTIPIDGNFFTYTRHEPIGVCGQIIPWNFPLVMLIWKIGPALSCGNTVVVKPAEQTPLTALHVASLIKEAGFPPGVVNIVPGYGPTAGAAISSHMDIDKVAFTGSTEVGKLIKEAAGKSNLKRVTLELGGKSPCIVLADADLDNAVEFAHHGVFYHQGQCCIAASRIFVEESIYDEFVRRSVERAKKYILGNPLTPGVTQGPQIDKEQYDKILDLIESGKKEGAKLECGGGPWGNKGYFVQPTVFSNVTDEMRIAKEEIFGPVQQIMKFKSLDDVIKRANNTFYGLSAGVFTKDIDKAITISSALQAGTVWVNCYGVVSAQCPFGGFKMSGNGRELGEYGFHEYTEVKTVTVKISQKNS
Assay: qHTS Assay for Inhibitors of Aldehyde Dehydrogenase 1 (ALDH1A1);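 on activity, negative = inhibition: plate controls were no enzyme wells and a reference inhibitor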
Details: Purified ALDH1A1, NADH fluorescence, propionaldehyde substrate; series mostly up to 75.3 µM; activity, negative = inhibition: at the top concentration
Potency means the concentration at half of the fitted maximal effect; tags describe the fitted curve by direction and shape.

Question: With Cc1ccc(C)c2c(SC(C)C(=O)NCc3ccco3)nc(-c3ccccc3)nc12 (configuration not stated) as the compound, how does the “activity, negative = inhibition” value read?
Answer: Its value is inactive: -0.679%.

Question: How did the “activity, negative = inhibition” value turn out when Cc1ccccc1OCC(O)CN1CCCCC1 (configuration not stated) was run?
Answer: Its value is inactive: -0.221%.

Question: For COc1ccc(C(=O)NN)cc1COc1ccc(Br)cc1, which Potency is on record?
Answer: The Potency was inconclusive [inhibitor, partial curve].

Question: With c1ccc(COc2ccccc2CNCc2cccnc2)cc1 as the compound, how does the Potency read?
Answer: Its Potency is active: 17.8 µM.

Question: O=c1oc(-c2ccccc2)nc2sc3c(c12)CCCC3 was tested. Which Potency did it give?
Answer: The Potency was inconclusive [inhibitor, single point].

Question: How did the Potency turn out when CCc1nn(-c2ccccc2)c(=S)c2ccccc12 was run?
Answer: The Potency was inconclusive [inhibitor, single point].

Question: For CC(C)(C)c1cc(NC(=O)CSc2nncs2)n(-c2ccccc2)n1, which “activity, negative = inhibition” value is on record?
Answer: Its value is inactive: 10.6%.

Question: How did the Potency turn out when Cc1cc2c(c(=O)n1Cc1ccccn1)C(c1ccc3c(c1)OCO3)C(C#N)=C(N)O2 (configuration not stated) was run?
Answer: The Potency was active: 12.6 µM.

Question: For O=C(NCCSCc1c(F)cccc1Cl)c1ccco1, which Potency is on record?
Answer: Its Potency is active: 15.8 µM.

Question: Cc1cc(O)cc(O)c1C=NCc1ccco1 was tested. Which “activity, negative = inhibition” value did it give?
Answer: The value was inactive: 2.06%.

Question: With O=[N+]([O-])c1ccc(N2CCNCC2)c(S(=O)(=O)N2CCOCC2)c1 as the compound, how does the “activity, negative = inhibition” value read?
Answer: Its value is inactive: 3%.

Question: How did the Potency turn out when CC(C)(C)c1nc(SCC(=O)NCc2ccco2)c2ccccc2n1 was run?
Answer: The Potency was inconclusive [inhibitor, single point].

Question: With CCSc1nc2c(c(=O)[nH]1)C(C(C)C)C(C#N)=C(N)O2 (configuration not stated) as the compound, how does the “activity, negative = inhibition” value read?
Answer: Its value is inactive: -10.7%.

Question: How did the “activity, negative = inhibition” value turn out when O=C(NCC1CCCO1)c1cc(-c2ccccc2)on1 (configuration not stated) was run?
Answer: Its value is inactive: 1.86%.

Question: With Cc1ccc(S(=O)(=O)CC(O)COc2ccccc2C#N)cc1 (configuration not stated) as the compound, how does the Potency read?
Answer: Its Potency is inconclusive [inhibitor, partial curve].

Question: Cc1c(C(=O)NC(Cc2ccccc2)c2nc3ccccc3[nH]2)cccc1[N+](=O)[O-] (configuration not stated) was tested. Which Potency did it give?
Answer: Its Potency is inconclusive [inhibitor, single point].

Question: With CCC1S/C(=C(\C#N)C(=O)NCc2ccco2)N(c2ccc(Br)cc2)C1=O (configuration not stated) as the compound, how does the Potency read?
Answer: Its Potency is inconclusive [inhibitor, single point].

Question: N#CC1=C(N)C(C#N)(C#N)C(c2ccncc2)C2CN(C(=O)OCc3ccccc3)CC=C12 (configuration not stated) was tested. Which Potency did it give?
Answer: Its Potency is inconclusive [inhibitor, partial curve].

Question: Which Potency does the source give for O=C(Nc1ccon1)c1ccc(N2CCCCC2)c([N+](=O)[O-])c1 here?
Answer: Its Potency is active: 12.6 µM.

Question: For COc1ccc(NC(=S)Nc2ccc(C)c(Cl)c2)cc1OC, which Potency is on record?
Answer: The Potency was inconclusive [inhibitor, single point].

Question: For C=C(C)Cn1c(SCC(=O)N/N=C/c2cccc(O)c2)nc2ccccc2c1=O, which Potency is on record?
Answer: Its Potency is inconclusive [inhibitor, partial curve].

Question: With O=c1[nH]c2cc3c(cc2cc1C(c1nnnn1Cc1ccccc1)N1CCCCCC1)OCCO3 (configuration not stated) as the compound, how does the Potency read?
Answer: The Potency was inconclusive [inhibitor, partial curve].
